Publication PMC4336329 (PLoS ONE, 2015)
The whole screen tested about 310,000 compounds, of which about 14,000 (4.5%) showed an effect of 50% or more. The effect is printed as a negative number. This is one part of the list.
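Further: peak tail current of the secondary pulse compared with the same well before compound.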

What follows are molecules tested against human ether-à-go-go-related gene (hERG) potassium channel (human, UniProt Q12809) (assay: primary screen, population patch clamp on CHO cells stably expressing hERG).
human ether-à-go-go-related gene (hERG) potassium channel, sequence (Q12809 whole entry, looked up): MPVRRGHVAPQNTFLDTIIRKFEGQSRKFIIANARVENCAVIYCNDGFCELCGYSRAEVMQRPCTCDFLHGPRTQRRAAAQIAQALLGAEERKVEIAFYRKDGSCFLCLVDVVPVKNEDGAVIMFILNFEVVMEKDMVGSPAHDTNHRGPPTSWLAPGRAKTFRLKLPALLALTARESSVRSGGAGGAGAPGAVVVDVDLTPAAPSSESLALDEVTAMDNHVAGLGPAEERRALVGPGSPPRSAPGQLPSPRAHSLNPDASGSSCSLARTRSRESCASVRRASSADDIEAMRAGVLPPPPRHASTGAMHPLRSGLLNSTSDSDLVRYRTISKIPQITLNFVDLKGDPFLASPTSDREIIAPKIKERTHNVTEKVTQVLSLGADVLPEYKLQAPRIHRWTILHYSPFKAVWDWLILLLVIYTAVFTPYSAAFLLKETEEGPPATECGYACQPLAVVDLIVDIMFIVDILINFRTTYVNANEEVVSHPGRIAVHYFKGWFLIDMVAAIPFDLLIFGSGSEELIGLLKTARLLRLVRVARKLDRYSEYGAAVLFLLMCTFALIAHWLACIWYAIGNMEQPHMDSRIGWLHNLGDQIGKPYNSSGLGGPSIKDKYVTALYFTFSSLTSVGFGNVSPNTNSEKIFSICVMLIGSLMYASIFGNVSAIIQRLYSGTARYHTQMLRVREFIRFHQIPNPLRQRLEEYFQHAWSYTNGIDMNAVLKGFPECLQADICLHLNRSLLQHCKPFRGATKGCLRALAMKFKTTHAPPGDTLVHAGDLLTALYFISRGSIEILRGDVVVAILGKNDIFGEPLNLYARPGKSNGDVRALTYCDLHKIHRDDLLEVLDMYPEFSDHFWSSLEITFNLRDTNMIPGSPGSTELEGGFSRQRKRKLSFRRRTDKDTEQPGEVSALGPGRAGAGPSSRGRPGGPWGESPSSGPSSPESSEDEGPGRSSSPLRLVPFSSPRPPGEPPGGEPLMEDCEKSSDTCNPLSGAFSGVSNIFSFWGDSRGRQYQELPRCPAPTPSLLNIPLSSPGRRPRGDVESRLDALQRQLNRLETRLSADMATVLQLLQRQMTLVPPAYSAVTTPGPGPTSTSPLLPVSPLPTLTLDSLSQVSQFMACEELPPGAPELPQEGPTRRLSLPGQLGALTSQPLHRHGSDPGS
With O=S(=O)(Nc1ncnc2sc3c(c12)CCC3)c1cc(F)ccc1F the “hERG current change (%, negative = inhibition) at 10uM” value was -25%.
In the case of Cc1nc(SCc2c(Cl)cccc2Cl)nc(OC(=O)N(C)C)c1C, the “hERG current change (%, negative = inhibition) at 10uM” value was -4.32%.
For COc1ccc(NC(=O)CCn2c(=S)[nH]c3ccccc3c2=O)cc1OC, the “hERG current change (%, negative = inhibition) at 10uM” value was 19.4%.
Cc1ccc(S(=O)(=O)N(C)CCCC(=O)Nc2ccc(F)cc2)cc1 was tested, and the “hERG current change (%, negative = inhibition) at 10uM” value was -30.1%.
With Cc1cc(/C=C2/NC(=O)N(Cc3ccccc3F)C2=O)c(C)n1C the “hERG current change (%, negative = inhibition) at 10uM” value was -12%.
With O=C(NCC1CCCO1)C(=O)N/N=C/c1ccccc1C(=O)O (stereo not drawn) the “hERG current change (%, negative = inhibition) at 10uM” value was 24.4%.
With COC(=O)c1cc(S(=O)(=O)n2nc(C)c(Br)c2C)c(Cl)cc1Cl the “hERG current change (%, negative = inhibition) at 10uM” value was 9.64%.
In the case of CN(C)Cc1ccccc1C(O)(c1ccccc1)c1ccccc1, the “hERG current change (%, negative = inhibition) at 10uM” value was -3.3%.
For Cc1nc(-c2ccccc2)cs1, the “hERG current change (%, negative = inhibition) at 10uM” value was 6.35%.
For CCC(Sc1nc2ccccc2c(=O)[nH]1)C(=O)Nc1ccc(C(C)=O)cc1 (stereo not drawn), the “hERG current change (%, negative = inhibition) at 10uM” value was -1.63%.
c1ccc(Cc2nnc3sc(-c4ccc5c(c4)OCCO5)nn23)cc1 was tested, and the “hERG current change (%, negative = inhibition) at 10uM” value was -6.12%.
In the case of Cc1ccc(-c2nc3ncccn3c2Nc2ccc3c(c2)OCCO3)o1, the “hERG current change (%, negative = inhibition) at 10uM” value was -5.98%.
O=C1CCCc2ccccc2N1Cc1ccccc1Cl was tested, and the “hERG current change (%, negative = inhibition) at 10uM” value was -16.4%.
COC(=O)c1ccc2c(=O)n(CCO)c(=S)[nH]c2c1 was tested, and the “hERG current change (%, negative = inhibition) at 10uM” value was 13.2%.
For O=C(COc1ncnc2scc(-c3ccc(F)cc3)c12)NCc1ccco1, the “hERG current change (%, negative = inhibition) at 10uM” value was -9.55%.
In the case of O=c1c2ccccc2sn1-c1ccc(S(=O)(=O)N2CCCC2)cc1, the “hERG current change (%, negative = inhibition) at 10uM” value was 18.1%.
With COc1cc(CN2CCCC(N3CCN(c4ccccc4C)CC3)C2)cc(Cl)c1O (stereo not drawn) the “hERG current change (%, negative = inhibition) at 10uM” value was -40.2%.
For CN1CCN(S(=O)(=O)c2ccc(Nc3ccc(F)cc3)nc2)CC1, the “hERG current change (%, negative = inhibition) at 10uM” value was -28.5%.
For CCOc1ccc(S(=O)(=O)n2cc(-c3ccc(F)cc3)c(N)n2)cc1, the “hERG current change (%, negative = inhibition) at 10uM” value was 11.2%.
COc1ccccc1NC(=O)c1ccccc1SC was tested, and the “hERG current change (%, negative = inhibition) at 10uM” value was -4.86%.
In the case of CCC1CCCCN1CCCNC(=O)CC1Oc2ccccc2NC1=O (stereo not drawn), the “hERG current change (%, negative = inhibition) at 10uM” value was -12.4%.
In the case of CCN(CC)S(=O)(=O)c1ccc(NCc2ccccn2)nc1, the “hERG current change (%, negative = inhibition) at 10uM” value was 12.9%.
With COCCn1c(C)cc(C(=O)COc2cccnc2[N+](=O)[O-])c1C the “hERG current change (%, negative = inhibition) at 10uM” value was -2.79%.
Cc1ccc(C(=O)NCC(=O)N(C)CC(=O)Nc2ccccc2Br)s1 was tested, and the “hERG current change (%, negative = inhibition) at 10uM” value was -7.85%.
CCCCn1c(O)c(C(C)=Nc2c(C)n(C)n(-c3ccccc3)c2=O)c(=O)[nH]c1=O was tested, and the “hERG current change (%, negative = inhibition) at 10uM” value was 9.64%.
For N#Cc1nc(-c2cccs2)oc1NCc1ccc(Cl)cc1, the “hERG current change (%, negative = inhibition) at 10uM” value was -8.4%.
O=C(Nc1ccc2oc(=O)ccc2c1)c1cc2ccccc2o1 was tested, and the “hERG current change (%, negative = inhibition) at 10uM” value was -6.21%.
O=C(O)CCC(=O)Nc1ccccc1C(=O)NCc1ccccc1 was tested, and the “hERG current change (%, negative = inhibition) at 10uM” value was 10.3%.
CCCCc1ccc(S(=O)(=O)Nc2cc(C)on2)cc1 was tested, and the “hERG current change (%, negative = inhibition) at 10uM” value was -0.896%.
In the case of CCOc1ccccc1-c1ccc(C(=O)NCc2ccccc2)o1, the “hERG current change (%, negative = inhibition) at 10uM” value was 8.85%.
CCn1cnc2cc(NCc3ccc(Br)cc3)ccc21 was tested, and the “hERG current change (%, negative = inhibition) at 10uM” value was -61.3%.
With CC1CN(C(=S)Nc2cccc(F)c2)CC(C)O1 (stereo not drawn) the “hERG current change (%, negative = inhibition) at 10uM” value was 13.9%.
For CCc1ccc(NC2=NC(C(=O)NC3CCCCC3)CC(=O)N2)cc1 (stereo not drawn), the “hERG current change (%, negative = inhibition) at 10uM” value was 14.9%.
With COc1ccc(-c2cn(CCN)c(-c3ccncc3)n2)cc1 the “hERG current change (%, negative = inhibition) at 10uM” value was 5.87%.
For CCOC(=O)C1CCCN(Cc2cc(=O)oc3cc(C)c(C(C)C)cc23)C1 (stereo not drawn), the “hERG current change (%, negative = inhibition) at 10uM” value was 19.6%.
For COc1ccc(NC(=O)c2ccccc2N(Cc2ccccc2)S(C)(=O)=O)cc1OC, the “hERG current change (%, negative = inhibition) at 10uM” value was 10.8%.
In the case of Cc1nc2ncnn2c(C)c1CCC(=O)NCCc1ccccc1, the “hERG current change (%, negative = inhibition) at 10uM” value was -6.74%.
For COc1ccccc1NS(=O)(=O)c1ccc2c(c1)NC(=O)C(C)S2 (stereo not drawn), the “hERG current change (%, negative = inhibition) at 10uM” value was 4.54%.
With O=C(CN(C(=O)CCC(=O)Nc1nccs1)c1ccc(F)c(Cl)c1)NCc1ccco1 the “hERG current change (%, negative = inhibition) at 10uM” value was -7.47%.
With CS(=O)(=O)N(CC(=O)Nc1ccc2c(c1)OCCO2)Cc1ccc(Cl)cc1 the “hERG current change (%, negative = inhibition) at 10uM” value was -9.31%.
In the case of COc1cc(OC)c(C(=O)OCC(=O)NCCC2=CCCCC2)cc1OC, the “hERG current change (%, negative = inhibition) at 10uM” value was -2.59%.
In the case of Cc1cc(C)c(S(=O)(=O)c2ccccc2)c(OC(=O)c2cc(F)c(F)cc2Cl)n1, the “hERG current change (%, negative = inhibition) at 10uM” value was -0.663%.
CCn1c(=O)c(CCC(=O)NCC2CCCO2)c(C)c2c(C)nn(-c3ccc(C)cc3)c21 (stereo not drawn) was tested, and the “hERG current change (%, negative = inhibition) at 10uM” value was 30.5%.
For CC1=CC(C)(C)N(C(=O)CNC2CCCCC2)c2cc(C)ccc21.O=C(O)C(=O)O, the “hERG current change (%, negative = inhibition) at 10uM” value was -16.3%.
CCCn1c(N2CCN(Cc3cccc(C)c3)CC2)nc2c1c(=O)[nH]c(=O)n2C was tested, and the “hERG current change (%, negative = inhibition) at 10uM” value was -53%.
In the case of Cn1c(O)c(/C=N/NC(=O)c2cc3ccccc3cc2O)c2ccccc21, the “hERG current change (%, negative = inhibition) at 10uM” value was 28.8%.
In the case of COc1ccc(CCC(=O)NCCOc2ccccc2Cl)cc1, the “hERG current change (%, negative = inhibition) at 10uM” value was -2.07%.
In the case of COC(=O)c1coc(-c2ccc(OC)cc2)c1C(=O)OC, the “hERG current change (%, negative = inhibition) at 10uM” value was 13.8%.
For C#Cc1ccc([C@H]2C=C(C(=O)NCc3nc4ccccc4[nH]3)O[C@@H](OCc3ccc(CO)cc3)C2)cc1, the “hERG current change (%, negative = inhibition) at 10uM” value was -1.37%.
With C=CCn1c(C)cc(C(=O)CN2NS(=O)(=O)c3ccccc3C2=O)c1C the “hERG current change (%, negative = inhibition) at 10uM” value was -20.8%.
For CSc1nc2ccc(NC(=O)c3ccccn3)cc2s1, the “hERG current change (%, negative = inhibition) at 10uM” value was 11.2%.
COc1ccc(OC)c(NC(=O)C2CCCN2C(=O)OCc2ccccc2)c1 (stereo not drawn) was tested, and the “hERG current change (%, negative = inhibition) at 10uM” value was -7.65%.
CC1(C)Cc2c(c(N3CCOCC3)nc3sc4c(N5CCOCC5)nnnc4c23)CS1 was tested, and the “hERG current change (%, negative = inhibition) at 10uM” value was 9.81%.
In the case of COc1cc(OC)cc(C(=O)NC2CC3CCC(C2)N3C)c1 (stereo not drawn), the “hERG current change (%, negative = inhibition) at 10uM” value was -1.45%.
In the case of Cn1c(=O)c2cc(NC(=O)c3ccccc3Cl)c(=O)oc2n(C)c1=O, the “hERG current change (%, negative = inhibition) at 10uM” value was -7.06%.
In the case of O=C(CC1CC2CCC1C2)N1CCN(S(=O)(=O)c2ccccc2F)CC1 (stereo not drawn), the “hERG current change (%, negative = inhibition) at 10uM” value was -10%.
With Cc1cc(NC(=O)COC(=O)c2cc(S(=O)(=O)N3CCOCC3)ccc2N2CCCCC2)no1 the “hERG current change (%, negative = inhibition) at 10uM” value was -16.6%.
